In article PMC4199523:
These are yes or no findings as the source states them, for the method shown. Binding seen in cells or lysates may run through a third protein. Some entries that bind do so weakly or less than the wild type. For some of these results: Sequences can lack the tags named with a protein. Values belong to the binder of their own block, whether it stands above or below them.

Sequences of proteins named here, by UniProt entry; tags and fusion partners are left off.
UniProt D0EL35: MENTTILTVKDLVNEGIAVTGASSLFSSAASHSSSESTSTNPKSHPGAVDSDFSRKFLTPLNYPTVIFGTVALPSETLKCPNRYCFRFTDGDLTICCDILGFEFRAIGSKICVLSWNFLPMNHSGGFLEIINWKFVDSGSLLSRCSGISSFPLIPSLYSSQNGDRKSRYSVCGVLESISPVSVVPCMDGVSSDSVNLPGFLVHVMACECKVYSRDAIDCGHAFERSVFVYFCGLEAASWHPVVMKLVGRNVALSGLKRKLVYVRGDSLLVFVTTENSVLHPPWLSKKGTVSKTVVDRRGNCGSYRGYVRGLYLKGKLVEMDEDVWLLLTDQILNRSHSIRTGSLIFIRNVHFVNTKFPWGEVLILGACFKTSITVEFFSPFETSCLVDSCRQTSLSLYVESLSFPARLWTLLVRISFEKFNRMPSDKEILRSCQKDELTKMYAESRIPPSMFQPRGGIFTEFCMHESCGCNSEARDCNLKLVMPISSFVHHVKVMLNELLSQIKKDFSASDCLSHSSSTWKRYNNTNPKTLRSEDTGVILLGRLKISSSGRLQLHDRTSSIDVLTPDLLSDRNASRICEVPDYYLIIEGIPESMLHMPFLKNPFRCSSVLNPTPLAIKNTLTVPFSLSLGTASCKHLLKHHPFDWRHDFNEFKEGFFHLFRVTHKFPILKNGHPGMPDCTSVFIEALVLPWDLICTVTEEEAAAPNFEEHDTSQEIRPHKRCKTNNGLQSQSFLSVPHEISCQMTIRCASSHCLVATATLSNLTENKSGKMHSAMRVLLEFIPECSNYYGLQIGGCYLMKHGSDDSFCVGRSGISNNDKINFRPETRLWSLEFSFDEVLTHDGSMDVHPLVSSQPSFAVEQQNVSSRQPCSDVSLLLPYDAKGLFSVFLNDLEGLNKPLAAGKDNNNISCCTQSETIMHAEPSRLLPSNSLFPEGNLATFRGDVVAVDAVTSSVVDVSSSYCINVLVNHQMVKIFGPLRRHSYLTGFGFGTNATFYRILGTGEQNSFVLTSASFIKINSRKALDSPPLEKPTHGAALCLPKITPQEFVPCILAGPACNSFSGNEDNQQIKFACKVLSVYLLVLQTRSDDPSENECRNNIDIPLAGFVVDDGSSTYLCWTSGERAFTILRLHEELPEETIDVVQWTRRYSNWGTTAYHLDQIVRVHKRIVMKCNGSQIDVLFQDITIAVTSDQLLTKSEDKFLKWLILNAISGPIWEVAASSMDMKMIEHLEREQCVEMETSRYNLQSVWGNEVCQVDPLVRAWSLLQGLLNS

Tests used:
[1] = biological target: T1, E. coli-expressed POT1a OB1 (first OB-fold of POT1a) (Arabidopsis thaliana) (UniProt Q56Y52); assay: co-IP; in vitro co-IP and competition: purified E. coli TEN1 (IP with purified TEN1 antibody and protein-A agarose) or purified E. coli POT1a OB1 (IP of POT1a) with RRL-expressed 35S-methionine labeled STN1; increasing POT1a OB1 or 50x BSA; 10 washes with buffer W300; coomassie stain and autoradiography; only the target purified
T1 sequence: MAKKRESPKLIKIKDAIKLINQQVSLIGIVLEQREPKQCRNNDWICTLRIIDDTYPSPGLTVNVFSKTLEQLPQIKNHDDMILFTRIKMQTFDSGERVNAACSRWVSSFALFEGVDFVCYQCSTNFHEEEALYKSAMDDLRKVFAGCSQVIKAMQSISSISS

[2] = biological target: T2, E. coli-expressed TEN1 (Arabidopsis thaliana) (UniProt Q6NME7); assay: as above
T2 sequence: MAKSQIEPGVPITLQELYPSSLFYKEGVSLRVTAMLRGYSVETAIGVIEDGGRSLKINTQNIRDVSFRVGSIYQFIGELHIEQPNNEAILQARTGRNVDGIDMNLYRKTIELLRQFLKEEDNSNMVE

[3] = biological target: T3, T7-tagged TEN1, RRL-expressed (Arabidopsis thaliana) (UniProt Q6NME7); assay: co-IP; in vitro co-IP of RRL-expressed proteins: T7-tagged bait precipitated with T7 antibody-conjugated agarose beads, 35S-methionine labeled prey detected by autoradiography
T3 sequence: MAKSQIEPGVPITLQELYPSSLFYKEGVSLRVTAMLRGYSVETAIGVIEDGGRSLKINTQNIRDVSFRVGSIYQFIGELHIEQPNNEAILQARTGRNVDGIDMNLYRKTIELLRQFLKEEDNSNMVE

[4] = biological target: T4, T7-tagged POT1a (Protection of Telomeres 1a), RRL-expressed (Arabidopsis thaliana) (UniProt Q56Y52); assay: as above
T4 sequence: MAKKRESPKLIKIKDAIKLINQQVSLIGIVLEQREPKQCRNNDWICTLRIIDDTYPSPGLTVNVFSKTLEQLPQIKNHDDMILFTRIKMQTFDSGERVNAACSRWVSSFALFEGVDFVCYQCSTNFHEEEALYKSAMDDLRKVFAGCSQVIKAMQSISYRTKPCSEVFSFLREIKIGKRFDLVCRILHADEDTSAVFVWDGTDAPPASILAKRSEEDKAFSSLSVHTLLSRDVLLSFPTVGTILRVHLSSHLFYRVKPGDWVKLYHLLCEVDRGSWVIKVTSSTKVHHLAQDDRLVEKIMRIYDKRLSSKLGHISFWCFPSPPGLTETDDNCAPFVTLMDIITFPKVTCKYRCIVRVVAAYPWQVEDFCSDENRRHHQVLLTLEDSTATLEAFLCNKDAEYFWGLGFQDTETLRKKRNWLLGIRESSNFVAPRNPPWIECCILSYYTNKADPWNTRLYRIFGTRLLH

[5] = biological target: T5, TERT (telomerase catalytic subunit), endogenous in Arabidopsis seedlings (Arabidopsis thaliana (endogenous in seedlings)) (UniProt Q9SPU7); assay: co-IP; IP from wild type or pot1a Arabidopsis seedling extracts with affinity purified TERT, STN1 or TEN1 antibody, protein-A agarose, washes with buffers W300 and TMG; western blot
T5 sequence: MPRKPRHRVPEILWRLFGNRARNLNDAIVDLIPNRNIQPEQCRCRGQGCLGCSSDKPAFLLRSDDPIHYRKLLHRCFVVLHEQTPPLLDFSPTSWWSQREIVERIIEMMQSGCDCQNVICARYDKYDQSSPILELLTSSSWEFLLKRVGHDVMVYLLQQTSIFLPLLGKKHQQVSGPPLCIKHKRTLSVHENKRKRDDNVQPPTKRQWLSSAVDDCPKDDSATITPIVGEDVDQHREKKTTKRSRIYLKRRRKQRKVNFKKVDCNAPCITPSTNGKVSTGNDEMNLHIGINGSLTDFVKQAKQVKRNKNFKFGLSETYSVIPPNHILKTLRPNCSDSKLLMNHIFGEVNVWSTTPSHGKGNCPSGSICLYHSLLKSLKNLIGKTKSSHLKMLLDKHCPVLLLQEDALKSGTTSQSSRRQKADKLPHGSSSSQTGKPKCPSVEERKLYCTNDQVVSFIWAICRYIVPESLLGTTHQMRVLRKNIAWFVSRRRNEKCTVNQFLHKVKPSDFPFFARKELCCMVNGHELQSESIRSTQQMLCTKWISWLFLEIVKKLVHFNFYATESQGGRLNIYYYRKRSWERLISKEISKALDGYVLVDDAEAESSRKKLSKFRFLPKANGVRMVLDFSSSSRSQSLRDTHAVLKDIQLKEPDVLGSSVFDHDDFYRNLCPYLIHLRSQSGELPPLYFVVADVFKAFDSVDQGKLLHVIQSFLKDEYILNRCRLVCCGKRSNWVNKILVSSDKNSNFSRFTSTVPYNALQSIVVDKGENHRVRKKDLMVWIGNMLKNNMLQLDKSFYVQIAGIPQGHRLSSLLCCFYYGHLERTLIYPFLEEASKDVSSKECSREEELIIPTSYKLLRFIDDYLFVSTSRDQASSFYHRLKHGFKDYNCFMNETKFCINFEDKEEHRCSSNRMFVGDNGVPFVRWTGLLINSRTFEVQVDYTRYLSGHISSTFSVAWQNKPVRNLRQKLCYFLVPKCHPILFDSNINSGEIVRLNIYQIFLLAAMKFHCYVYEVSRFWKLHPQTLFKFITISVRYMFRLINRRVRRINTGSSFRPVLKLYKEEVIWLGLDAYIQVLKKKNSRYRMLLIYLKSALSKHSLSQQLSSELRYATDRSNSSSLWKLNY

[6] = biological target: transgenic CTC1-CFP protein (Arabidopsis thaliana) (UniProt D0EL35); assay: co-IP; IP of CTC1-CFP from transgenic Arabidopsis extract with anti-GFP antibody, protein-A agarose; western blot with anti-GFP and anti-POT1a antibodies; untransformed wild type tissue as negative control
[7] = biological target: T6, STN1, endogenous in Arabidopsis seedlings (Arabidopsis thaliana (endogenous in seedlings)) (UniProt Q9LMK5); assay: co-IP; IP from wild type or pot1a Arabidopsis seedling extracts with affinity purified TERT, STN1 or TEN1 antibody, protein-A agarose, washes with buffers W300 and TMG; western blot
T6 sequence: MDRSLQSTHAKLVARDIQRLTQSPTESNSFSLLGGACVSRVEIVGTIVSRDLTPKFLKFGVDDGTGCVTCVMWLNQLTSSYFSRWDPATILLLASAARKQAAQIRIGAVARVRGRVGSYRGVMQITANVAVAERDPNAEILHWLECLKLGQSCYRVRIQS

binding [1]: binds
binding [2]: binds
binding [3]: binds
binding [4]: binds
B1: 35S-methionine labeled STN1, RRL-expressed (protein, UniProt Q9LMK5 1-160)
chain: MDRSLQSTHAKLVARDIQRLTQSPTESNSFSLLGGACVSRVEIVGTIVSRDLTPKFLKFGVDDGTGCVTCVMWLNQLTSSYFSRWDPATILLLASAARKQAAQIRIGAVARVRGRVGSYRGVMQITANVAVAERDPNAEILHWLECLKLGQSCYRVRIQS
modifications: 35S-methionine labeled

binding [5]: binds
B2: STN1, endogenous in Arabidopsis seedlings (protein, UniProt Q9LMK5 1-160)
chain: MDRSLQSTHAKLVARDIQRLTQSPTESNSFSLLGGACVSRVEIVGTIVSRDLTPKFLKFGVDDGTGCVTCVMWLNQLTSSYFSRWDPATILLLASAARKQAAQIRIGAVARVRGRVGSYRGVMQITANVAVAERDPNAEILHWLECLKLGQSCYRVRIQS

binding [6]: binds
B3: POT1a, endogenous in Arabidopsis (protein, UniProt Q56Y52 1-467)
chain: MAKKRESPKLIKIKDAIKLINQQVSLIGIVLEQREPKQCRNNDWICTLRIIDDTYPSPGLTVNVFSKTLEQLPQIKNHDDMILFTRIKMQTFDSGERVNAACSRWVSSFALFEGVDFVCYQCSTNFHEEEALYKSAMDDLRKVFAGCSQVIKAMQSISYRTKPCSEVFSFLREIKIGKRFDLVCRILHADEDTSAVFVWDGTDAPPASILAKRSEEDKAFSSLSVHTLLSRDVLLSFPTVGTILRVHLSSHLFYRVKPGDWVKLYHLLCEVDRGSWVIKVTSSTKVHHLAQDDRLVEKIMRIYDKRLSSKLGHISFWCFPSPPGLTETDDNCAPFVTLMDIITFPKVTCKYRCIVRVVAAYPWQVEDFCSDENRRHHQVLLTLEDSTATLEAFLCNKDAEYFWGLGFQDTETLRKKRNWLLGIRESSNFVAPRNPPWIECCILSYYTNKADPWNTRLYRIFGTRLLH

binding [3]: no binding
B4: 35S-methionine labeled POT1a, RRL-expressed (protein, UniProt Q56Y52 1-467)
chain: MAKKRESPKLIKIKDAIKLINQQVSLIGIVLEQREPKQCRNNDWICTLRIIDDTYPSPGLTVNVFSKTLEQLPQIKNHDDMILFTRIKMQTFDSGERVNAACSRWVSSFALFEGVDFVCYQCSTNFHEEEALYKSAMDDLRKVFAGCSQVIKAMQSISYRTKPCSEVFSFLREIKIGKRFDLVCRILHADEDTSAVFVWDGTDAPPASILAKRSEEDKAFSSLSVHTLLSRDVLLSFPTVGTILRVHLSSHLFYRVKPGDWVKLYHLLCEVDRGSWVIKVTSSTKVHHLAQDDRLVEKIMRIYDKRLSSKLGHISFWCFPSPPGLTETDDNCAPFVTLMDIITFPKVTCKYRCIVRVVAAYPWQVEDFCSDENRRHHQVLLTLEDSTATLEAFLCNKDAEYFWGLGFQDTETLRKKRNWLLGIRESSNFVAPRNPPWIECCILSYYTNKADPWNTRLYRIFGTRLLH
modifications: 35S-methionine labeled

binding [4]: no binding
B5: 35S-methionine labeled TEN1, RRL-expressed (protein, UniProt Q6NME7 1-127)
chain: MAKSQIEPGVPITLQELYPSSLFYKEGVSLRVTAMLRGYSVETAIGVIEDGGRSLKINTQNIRDVSFRVGSIYQFIGELHIEQPNNEAILQARTGRNVDGIDMNLYRKTIELLRQFLKEEDNSNMVE
modifications: 35S-methionine labeled

binding [5]: no binding
B6: TEN1, endogenous in Arabidopsis seedlings (protein, UniProt Q6NME7 1-127)
chain: MAKSQIEPGVPITLQELYPSSLFYKEGVSLRVTAMLRGYSVETAIGVIEDGGRSLKINTQNIRDVSFRVGSIYQFIGELHIEQPNNEAILQARTGRNVDGIDMNLYRKTIELLRQFLKEEDNSNMVE

binding [7]: binds
B7: TERT (telomerase catalytic subunit), endogenous in Arabidopsis seedlings (enzyme, UniProt Q9SPU7 1-1123)
chain: MPRKPRHRVPEILWRLFGNRARNLNDAIVDLIPNRNIQPEQCRCRGQGCLGCSSDKPAFLLRSDDPIHYRKLLHRCFVVLHEQTPPLLDFSPTSWWSQREIVERIIEMMQSGCDCQNVICARYDKYDQSSPILELLTSSSWEFLLKRVGHDVMVYLLQQTSIFLPLLGKKHQQVSGPPLCIKHKRTLSVHENKRKRDDNVQPPTKRQWLSSAVDDCPKDDSATITPIVGEDVDQHREKKTTKRSRIYLKRRRKQRKVNFKKVDCNAPCITPSTNGKVSTGNDEMNLHIGINGSLTDFVKQAKQVKRNKNFKFGLSETYSVIPPNHILKTLRPNCSDSKLLMNHIFGEVNVWSTTPSHGKGNCPSGSICLYHSLLKSLKNLIGKTKSSHLKMLLDKHCPVLLLQEDALKSGTTSQSSRRQKADKLPHGSSSSQTGKPKCPSVEERKLYCTNDQVVSFIWAICRYIVPESLLGTTHQMRVLRKNIAWFVSRRRNEKCTVNQFLHKVKPSDFPFFARKELCCMVNGHELQSESIRSTQQMLCTKWISWLFLEIVKKLVHFNFYATESQGGRLNIYYYRKRSWERLISKEISKALDGYVLVDDAEAESSRKKLSKFRFLPKANGVRMVLDFSSSSRSQSLRDTHAVLKDIQLKEPDVLGSSVFDHDDFYRNLCPYLIHLRSQSGELPPLYFVVADVFKAFDSVDQGKLLHVIQSFLKDEYILNRCRLVCCGKRSNWVNKILVSSDKNSNFSRFTSTVPYNALQSIVVDKGENHRVRKKDLMVWIGNMLKNNMLQLDKSFYVQIAGIPQGHRLSSLLCCFYYGHLERTLIYPFLEEASKDVSSKECSREEELIIPTSYKLLRFIDDYLFVSTSRDQASSFYHRLKHGFKDYNCFMNETKFCINFEDKEEHRCSSNRMFVGDNGVPFVRWTGLLINSRTFEVQVDYTRYLSGHISSTFSVAWQNKPVRNLRQKLCYFLVPKCHPILFDSNINSGEIVRLNIYQIFLLAAMKFHCYVYEVSRFWKLHPQTLFKFITISVRYMFRLINRRVRRINTGSSFRPVLKLYKEEVIWLGLDAYIQVLKKKNSRYRMLLIYLKSALSKHSLSQQLSSELRYATDRSNSSSLWKLNY
